The source gives no read counts; variants with many changes may rest on few reads.
B1: OR4K15 (parent)
chain: GUUAACGGUCAUAGGCCAUGGAAACUAGGAGCACCAUUUCGCUGCCAGUGAAGAAAUGAACAAAGAAAAUCUGGGCCAGGCAGGCAUCAAAAGAAAUAGUCUUGCGCUCAACCAGAAAGUCUGUAAUCAUUUUAAGGGUA

Variants of: B1
Test: self-cleavage, relative activity (ratio to wild type); higher = more cleavage; in vitro, sequencing; the parent is a self-cleaving ribozyme

Variant | self-cleavage
A33U U37A A62G | 1.31
C35A A82G U102C A114G | 0.76
U37C A62G U100C | 1.1
U37C A51G A82G | 0.44
A36U A55G A59G U87C A90G | 0.12
C35U A67G A78G | 0.09
U37C U39A A51U A62U | 1.26
A36G A54G A64G A129G | 2.1
A36G A116G U132A | 0.64
U37C A47U U122A U130A | 0.52
A33U U108A U124C U132C | 0
A36G U43C A96G U108C | 0
A33U A54G A96G | 1.11
U37A A89G A111G | 0.03
A36G A51U A55G A56U U130C | 0.81
A36C A59U A62G A118G | 1.08
A33G U120C U122C | 0.3
U37C U39C U103C A111U G137A | 0.22
U37C A66G A126U U131C | 1.25
U37C A94G U132C | 1.73
U37C A54G U97G U108A C109U | 0.01
A36G A54G A95G A129U U130C | 1.69
A36U U38C U130C | 1.61
A33U A92G A125G | 1.05

Variant | self-cleavage
A36G A47G A114G | 0.25
U37C U38G A60G A68G | 1.11
U37C U39C A98G U122C | 0.8
U37C A69G A116U U124C | 0.2
U37C A64G A91G A111G A116G | 0.02
C35A A95G A114G | 0.84
A36U U122C U132C | 1.54
U37C U39C C77G | 0.03
A36U U38C A86U U122A U127A | 1.34
A36G U37C A63U A117G U122C | 2.3
A36G A51G U122C | 1.96
A33G U49A U130C | 0.31
U37C U39A A66G A90G | 1.12
A33G U39A U43C U100C | 2.19
U37C A68U A110G U124A | 0.03
U37C A66U U100A | 0.25
U37C A52G A66G A78U | 0.46
U37C A110U A111U | 0.01
A36G A86U A94C A114G G119A | 0.92
C34U A36U A67G C107A | 0.03
A33U A52G A94G | 2.24
A36G A126G U139C A140G | 0.43
U37C U38A U130C A140G | 0.93
U37C A47U A63G C77U A116G | 1.06

Variant | self-cleavage
A36G A56G A64U | 1.33
U37C A90U G123A | 1.64
U37C A55G A68G | 1.61
A33U A47U U132C | 1.24
A33U A54G A68G | 1
C34U A56G U103A | 0.16
U37C G41A A111G A135G | 0.02
A33U A52G A56G A63U G73A U131C A134G | 0.1
A33G U37C A64G A125G A135G | 0.2
U37C A54G A56G A63G A96G | 0.52
A36U U43C A82G | 1.11
U37C C76A U124C | 0.13
U37A A54G A129G | 1.22
A33U A52G A125G | 0.36
A36G A89G A96G A110C | 0.11
A33G U39A C112G U122C | 0
A33U A47G U102C U108C U122C | 0.01
A33G U38C U97C | 1
A36U G41A G74C A91G U100C | 0.24
U37C A96G A140G | 1.62
C35G U87A A117U | 0.46
A33U A91U A118G U122C | 1.9
A36U A114G A134U | 0.44
A36G U38C A90G A117U | 1.28

Variant | self-cleavage
U37A U122C U130G | 1.01
A36U U37C A60G U87C | 0.33
U37C A55G U70A | 0.54
U37C U39A A51U | 0.93
A36U A56G A114G A126G | 0.02
A36G U43C A64G U100G | 1.52
A33U A64G A78G A82G | 0.16
A33U A91G U139A | 1.19
A36U U102A U108A | 0.01
A36U A117G U139C | 2.05
A36G U49A A51G | 0.24
C34U A47G U49C A52G | 1.28
U37C A59G U87A U103C | 0.49
U37C A47G A59G A63G | 1.28
A36G A92G U103A | 0.51
U37C A67U A86U | 2.52
A33U A36U A82C A90U U122G | 0.31
U37C A95G U108C | 0.02
A33U G58A U100A | 0.39
C35U A64G G84U | 0.25
U37C A52G A56G | 0.34
A33U A92G U130C | 1.43
A36U A82G U87C | 0.62
U37C A64G A118G | 1.14

Variant | self-cleavage
U37C U38C A63G C128U | 0.76
A36G A55U A94G | 1.62
A36G U38C U70C A117G | 1.43
A36G A86G A134U | 1.71
U37C A51G U57C U72G | 0.47
U37C A62C A69G A114G A116G U122C | 0.01
A33U U72A A82G U97A | 0.2
A36U A86G A89G | 0.63
A33U U70C A89U | 0.97
U37A A68G A82G A96G A117G U130C | 0.24
U37C A95G A114G A117G | 0.98
A36U A64U A89G | 1.97
U37C A55G U87C A91G U100A U103C U127C | 0.02
U37C C45A A51G A95G A117G | 1.33
A36G U37C U39A A118U | 0.55
U37C U39C U87C | 1.43
C34U A54G A56G C88A | 1.85
U37C A63C A68G A82G A116U | 0.05
A36G C85U U122C | 0.91
U37C A51G A78G A82U C113U | 0.03
U37C C40U A94G U131C | 0.78
A36G U38C A63G A66G | 1.57
A36G A54G U127C | 1.08
A36G A110G U120A | 0.15

Variant | self-cleavage
A36G G41A A118U U124C | 0.25
U37C A47U U57C U100C | 0.72
U37C A55G U100A | 1.13
A36U A62U A67G A90G | 1.11
A33U U70C A92G U132C | 0.21
A33G U122C U139C | 0.35
A36G G44A A92G | 0.81
A36C A82G U133A G136U | 0.47
A36U U37C U43A U100C | 2.06
A33U A78G A82G | 0.24
A36U U37C A111G U132A | 0.02
A36U A66G A68G A91G A116G C121A | 0.52
A36G A60G A116G | 0.94
A33U A54G A82U A126G | 0.04
A33G U43C A66G A94G | 1.19
A33G U39A A55G A78G C121U | 0.3
U37C A56G C113A | 0.01
A33U A55G A98G U103C A110G | 0.02
A36G A90G A116G | 0.16
C34U A56U A111G U132C | 0.02
A33G U122A A129G | 0.62
U37C A90G U103C A118U | 0.12
C34G A56G U87C U130C | 1.02
A33G U122C A134G G136U | 0.25

Variant | self-cleavage
A33G U43A A90G U100C U120C | 0.89
A33U A78U A90G A140U | 0.1
A33U U39C A82U | 0.23
U37C A90G U97C A114G | 0.14
U37C A62G A69G A95G | 1.54
A36G A66G A94G A111G | 0.04
A33U A52G A56G | 2.23
U37C A91G U132C | 0.92
C35U A116G A125G U127C | 0.02
U37C A52U A96G | 0.95
C35U U39A U49C A125G | 0.31
A36G A82U A86G A94G A98G C105A | 0.01
A36U A59G U72A A92G U100C U122C | 0.21
U37C A59U U72C A111G U132C | 0
A36G A86G A92G | 0.87
A36U A90G A92U A95G | 0.34
A36G A114C U139C | 0.02
A33G U49C A91G U100C A118G | 2.63
C34A A60G A135G | 1.56
C34G C105U U139G | 0.29
U37C G74A C81U | 0.18
A33G U100C U122C | 1.69
C34A G104A U122C | 0

Source: the RNAGym collection of RNA variant scans (doi:10.7554/elife.90254)
